Data on 79 compounds can be found in publication PMC12040169 (PLOS Biology, 2025).

The list shows a part of the results.

The subject of the experiment is T1, C. trachomatis L2/434/Bu expressing GFP (CTL2-GFP).
T1 construct: L2/434/Bu GFP intracellular growth in HeLa cells
More on the design: species or system HeLa; C. trachomatis total inclusion area by high-content imaging, normalised to DMSO. As to conditions: total inclusion area; 28.5 h, 10 µM; inhibitor. A digest of the protocol: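 High-content images of fixed, Hoechst-stained infected cultures supply inclusion area and count (growth) plus nuclei number (viability), complementing bulk GFP/resorufin fluorescence. MIC determination is unchanged from the primary assay.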
Turning to `O=C1NC(c2cccnc2)Nc2sc3c(c21)CCCC3` (stereo not shown) [CBK072377], the “% of control remaining” value stood at 106.259.
On to `CC(C)(C)NC(=O)CN1C(=O)N2CCCN=C2c2ccccc21` [CBK284404], for which the “% of control remaining” value amounted to 83.1638.
With `CC1(OCCN2CCOCC2)SC(NC2CC3CCC2C3)=NC1=O` (stereo not shown) [CBK116313], the “% of control remaining” value is on record as 100.451.
`Cc1noc2nc(C3CCN(C(=O)C(C)C)CC3)cc(C(F)F)c12` [CBK285305]: the “% of control remaining” value is listed as 89.0602.
Consider `CN1CCC(N[C@H]2C[C@@H](Cc3cc(CCO)on3)C2(C)C)CC1` [CBK289253], for which the “% of control remaining” value is 89.1519.
As to `CCOCc1ccc(C(=O)N2CCNC(=O)C2Cc2ccc(-c3cccs3)cc2)cc1` (stereo not shown) [CBK285811], the “% of control remaining” value is reported as 70.1183.
Take `CCOC(=O)c1cccnc1-c1ccc(Cl)c(Cl)c1` [CBK149241]: the “% of control remaining” value is 97.152.
Take `CC(=O)Nc1ccc(S(=O)(=O)N2CCN(C(=O)COc3ccc(Br)cc3)CC2)cc1` [CBK264234]: the “% of control remaining” value is 130.956.
Take `O=C(Nc1cccc2[nH]ccc12)c1ccc(Cl)cc1` [CBK159632]: the “% of control remaining” value amounted to 89.2961.
Regarding `Cc1nonc1CN(C)C(=O)C1CC2C=CC1C21CC1` (stereo not shown) [CBK282076], the “% of control remaining” value came to 90.4257.
Take `OCC(O)CN1CCCC1` (stereo not shown) [CBK015457]: the “% of control remaining” value was determined as 50.6665.
As to `Cc1nc(C)n(CCc2nc3ccccc3[nH]2)n1` [CBK269364], the “% of control remaining” value was 102.84.
With `CC(C)/C=N/N=C1\NC(=O)CS1` [CBK023706], the “% of control remaining” value was 89.7946.
As for `O=C(c1c(F)cccc1Cl)N1CCN(Cc2ccc3c(c2)OCO3)CC1` [CBK074724], the “% of control remaining” value came out at 94.6747.
Take `c1ccc2cc(CCN3CCC(Oc4cncc(OCCN5CCOCC5)n4)C3)ccc2c1` (stereo not shown) [CBK084503]: the “% of control remaining” value is 101.028.
The same measure for `CC(C)[C@H](CO)n1c(=O)[nH]c2ncc(-c3ccc(OC(F)(F)F)cc3)nc21` [CBK065037]: 82.3034; for `O=C(Nc1ccccc1Cl)Nc1[nH]nc(O)c1Cc1c(Cl)cccc1Cl` [CBK089367]: 86.6536.
As to `CNC(=O)CN(C)Cc1c(C(=O)N2CCOCC2)nc2c(C)cccn12` [CBK307128], the “% of control remaining” value was determined as 86.7229.
In the case of `CCOc1cc(OCC)cc(C(=O)N2CCC3(CC2)CC(=O)c2cc(OCCN(C)C)ccc2O3)c1` [CBK169003T], the “% of control remaining” value is 70.5115.
On to `CC(NC(=O)CSCc1ccco1)c1ccccc1` (stereo not shown) [CBK283237], for which the “% of control remaining” value is on record as 105.037.
Take `Cc1ccc(S(=O)(=O)N2CCC(C(=O)O)CC2)cc1C(=O)O` [CBK266636]: the “% of control remaining” value was determined as 111.499.
As to `Cc1ccc(S(=O)(=O)NC2c3cccc4cccc(c34)C2Sc2ccccn2)cc1` (stereo not shown) [CBK265840], the “% of control remaining” value is given as 52.6682.
As to `Cc1cccc(-c2noc([C@@H]3C[C@@H](O)CN3Cc3ccccn3)n2)c1` [CBK288837], the “% of control remaining” value is on record as 103.696.
For the compound `CC(C)(C)S(=O)(=O)Cc1noc(-c2ccc(Cl)nc2)n1` [CBK089825], the “% of control remaining” value was 30.9353.
As for `Cc1cccc(C2(O)CCN(C(=O)CCCc3ccncc3)CC2)c1` [CBK282506], the “% of control remaining” value is reported as 100.621.
In the case of `O=C(O)c1ccc(-c2ccc(N3CCN(C(=O)c4ccco4)CC3)nc2)cc1` [CBK037700], the “% of control remaining” value is given as 99.4794.
`O=C1CN(c2nc(-c3ccncc3)nc3ccccc23)CCN1` [CBK305805]: the “% of control remaining” value amounted to 90.0336.
For the compound `COc1ccc2c(c1)CC(C(=O)N1CCc3sccc3C1c1cccs1)CO2` (stereo not shown) [CBK285628], the “% of control remaining” value stood at 47.703.
Take `CC(=O)NCCn1cc2c(n1)[C@H]1CN(C(=O)CC(C)(C)C)C[C@H]1CC2` [CBK284592]: the “% of control remaining” value turned out to be 84.0556.
Regarding `COCC1CCCN1C(=O)c1cnn2c(C)c(Cc3cccc(C#N)c3)c(C)nc12` (stereo not shown) [CBK162099], the “% of control remaining” value stood at 95.0515.
As for `CCOc1n[s+]([O-])nc1Nc1cc(Cl)cc(Cl)c1` (stereo not shown) [CBK007897], the “% of control remaining” value turned out to be 51.5865.
On to `COc1ccc(CN2CCCN(C(=O)c3cccc(C#N)c3)CC2)cc1` [CBK305281], for which the “% of control remaining” value is recorded as 15.3102.
For `CC(C)CNc1nccnc1-c1ccc(Cl)cc1` [CBK088738], the “% of control remaining” value turned out to be 101.391.
Regarding `Cc1csc(C(Cc2ccsc2)NC(=O)CC2CCCO2)n1` (stereo not shown) [CBK282227], the “% of control remaining” value amounted to 107.994.
For the compound `CCN1CCN(c2ncnc3sc(C)c(C)c23)CC1` [CBK288101], the “% of control remaining” value stood at 84.0594.
Take `COc1ccc(-c2cnc(N)c(-c3ccc(C=O)cc3)n2)cn1` [CBK064096]: the “% of control remaining” value came to 91.182.
Consider `O=C(Cn1cc(C(=O)NC2CCCCC2)ccc1=O)NCC1(c2ccccc2Cl)CC1` [CBK286101], for which the “% of control remaining” value stood at 127.16.
As to `O=C1NCCCc2nc(Nc3ccccc3)sc21` [CBK087091], the “% of control remaining” value came out at 84.6421.
In the case of `Cn1ncc2c1CCCN(C(=O)COc1cccc(F)c1)C2` [CBK285257], the “% of control remaining” value was 103.204.
As for `CN(C)c1cccc2c(S(=O)(=O)n3ccn(-c4cccc(C(F)(F)F)c4)c3=O)cccc12` [CBK106578], the “% of control remaining” value is recorded as 90.8767.
Regarding `CC(=O)Nc1ccc(S(=O)(=O)NCCC#N)cc1Cl` [CBK044272], the “% of control remaining” value is reported as 87.4862.
Regarding `Cc1ccc([N+](=O)[O-])cc1NC(=O)CCn1cnc2ccccc2c1=O` [CBK267644], the “% of control remaining” value is 100.198.
For `COC(=O)[C@@H](C)NC(=O)[C@H]1CN(C(=O)Nc2ccccc2)CCN1C(=O)NC(C)C` [CBK289631], the “% of control remaining” value amounted to 103.457.
The same measure for `COC(=O)c1ccc(N2CCOCC2)c(NC(=O)c2cccnc2)c1` [CBK270257]: 68.4578; for `CC(C)(C)c1ccc(C(=O)CC(C(=O)O)N2CCN(c3cccc(Cl)c3)CC2)cc1` (stereo not shown) [CBK077385]: 73.0216; for `O=C(O)CCSc1nc(-c2ccccc2)c(-c2ccccc2)[nH]1` [CBK264228]: 105.414.
Turning to `COc1ccc(CNC(=O)c2sccc2S(=O)(=O)N2CCCCC2)cc1` [CBK305904], the “% of control remaining” value came to 98.6036.
In the case of `O=C(c1ccccc1F)N1CCCC1Cn1c(=O)oc2ccccc21` (stereo not shown) [CBK282926], the “% of control remaining” value came to 102.262.
In the case of `CC(=O)NCCNS(=O)(=O)c1ccc(C(C)C)cc1` [CBK043726], the “% of control remaining” value came out at 115.541.
In the case of `c1ccc(CNc2c(-c3ccco3)nc3cnccn23)cc1` [CBK283933], the “% of control remaining” value is recorded as 90.0851.
In the case of `COC(=O)c1cc(C)sc1NC(=S)Nc1cnn(Cc2cccc3ccccc23)c1` [CBK267098], the “% of control remaining” value is on record as 125.155.
In the case of `Cc1cc(C)n(CC2CN(CC(=O)NCc3cccs3)CCO2)n1` (stereo not shown) [CBK304902], the “% of control remaining” value was 106.758.
Take `Cc1sc(NC(=O)c2ccc3c(c2)OCCO3)c(C(=O)NCc2cccnc2)c1C` [CBK268181]: the “% of control remaining” value amounted to 92.8984.
Turning to `COc1cccc(/C=C2/NC(=O)N(c3cccc(Cl)c3)C2=O)c1OCc1cccc(C(=O)O)c1` [CBK265626], the “% of control remaining” value is 109.558.
To `Cc1nnc(Sc2ccc([N+](=O)[O-])cc2Cl)n1Cc1ccccc1` [CBK269694] belongs 98.8943.
In the case of `CN1C(=O)c2ccccc2OCCCCC[C@H]2[C@@H]1CCCN2C(=O)c1cc2c([nH]c1=O)CCC2` [CBK292034], the “% of control remaining” value was found to be 104.281.
Take `Cc1cc2ncn(CC(=O)N3CCC(F)CC3)c2cc1C` [CBK200266]: the “% of control remaining” value is on record as 86.9553.
Turning to `CCCC1=NN(c2ccc([N+](=O)[O-])cc2)C(=O)/C1=C/NC1CC(C)(C)NC(C)(C)C1` [CBK262896], the “% of control remaining” value came to 100.634.
For `COc1ccc(CN2CCC3(CCc4ccccc4C(=O)N3)C2)cc1` (stereo not shown) [CBK283339], the “% of control remaining” value is 93.3638.
To `Cn1c(CCC(=O)NCC(C)(C)N2CCCCC2)nc2ccccc21` [CBK281877] belongs 102.36; to `CC(=O)Nc1ccc(OC(=O)CSc2nc(C)cc(C)n2)cc1` [CBK266707], 127.835; to `Cc1noc(C)c1C(=O)N1CCC[C@H](C(=O)c2ccc(F)cc2)C1` [CBK284334], 78.1423.
For `COc1cc(CN(C)CCc2ccccn2)c([N+](=O)[O-])cc1OC` [CBK261737G], the “% of control remaining” value came to 107.149.
Regarding `COc1ccc(-c2cc(C(=O)NCCc3ccncc3)cnc2-c2cccc(C)c2)cn1` [CBK037489], the “% of control remaining” value worked out at 71.8857.
The same measure for `CC(C)C(=O)Nc1ccc2c(c1)C(=O)N(CCC(=O)O)C2=O` [CBK286544]: 92.1168.
With `O=C(NCc1ccc2c(c1)OCO2)c1ccc2[nH]ccc2c1` [CBK161750], the “% of control remaining” value is on record as 135.136.
`N#Cc1c(-c2ccccc2)cc(-c2ccccc2)nc1SCC(=O)O` [CBK131684]: the “% of control remaining” value came out at 91.0451.
On to `Cc1cc(C)n(CC(O)CN(Cc2ccco2)Cc2cccs2)n1` (stereo not shown) [CBK282979], for which the “% of control remaining” value is reported as 100.081.
As to `COc1cccc(-c2cc(C(=O)NCCCN3CCOCC3)c3ccccc3n2)c1` [CBK262630], the “% of control remaining” value was determined as 111.613.
To `CCCNCC(=O)N1CN(C(=O)c2ccc(C)cc2)C(C)(C)C1` [CBK089572C] belongs 79.3407; to `O=C1CC(NCC2CCCO2)C(=O)N1c1ccc(N2C(=O)CC(NCC3CCCO3)C2=O)cc1` (stereo not shown) [CBK263962], 99.8942; to `Cc1c(/C=C2\SC(=S)NC2=O)c2ccccc2n1Cc1ccccc1Cl` [CBK263946], 99.0224.
For `O=C1N[C@H]2CCCN(C(=O)CCN3CCCC3)[C@H]2C/C=C/CCOc2ccccc21` [CBK292162], the “% of control remaining” value was found to be 80.8708.
Regarding `COc1ccc(CNc2oc(-c3ccccc3)nc2S(=O)(=O)c2ccccc2)cc1` [CBK267669], the “% of control remaining” value is 78.9586.
The same measure for `Cc1cc2c(cc3c(=O)n(CC(=O)NC4CCCC4)nc(C)n32)s1` [CBK284072]: 96.662; for `CN(CC1OCCc2ccccc21)C(=O)CCC1CCCO1` (stereo not shown) [CBK282030]: 103.999.
Consider `Cc1noc(C)c1S(=O)(=O)Nc1nc(-c2cccnc2)cs1` [CBK067266], for which the “% of control remaining” value stood at 102.61.
As to `O=C1Nc2ccc(S(=O)(=O)NCCCO)c3cccc1c23` [CBK262033], the “% of control remaining” value was 101.556.
As for `O=C(Nc1snnc1-c1ccc(Cl)cc1)c1ccco1` [CBK153242], the “% of control remaining” value was 85.0095.
